The source gives no read counts; variants with many changes may rest on few reads.
B1: LINE1-full (parent)
chain: UACGUAGGUGGUUUUCCCCUGAUAGUGCUAAGGGGGCCUGGAAGUUUGGACUGGGCAGAGCUCAACACAGCGUGGCAAAGUGGCUGUGGCUAGACUGCCUCUCUGGAUUCCUCGUCACUCAGCAGGGCAUCUCUGAGAGAAAUGCC

Variants of: B1
Assay: self-cleavage, relative activity (ratio to wild type); higher = more cleavage; in vitro, sequencing; the parent is a self-cleaving ribozyme

| Variant | self-cleavage |
| --- | --- |
| G21U A31G U104A | 0.72 |
| U20A U39G G114U | 1.28 |
| U20C G80A A107G | 0.71 |
| U20C A43G A92G | 0.42 |
| U20C A59U C71U | 0.34 |
| C19U U39A G97A | 0.2 |
| U20A A31C U45C | 2 |
| C19U G55U A77G U104C A142G | 1.07 |
| U20C G54A C71U A129U | 0.21 |
| U20C G40A U52C | 1.62 |
| U20C C99U U119C | 0.45 |
| U20C U52C A69G | 0.31 |
| C19U C76U U119C | 2.38 |
| U20C A30G A136U | 1.13 |
| U20A U26C G127C G135U A142G | 1.4 |
| A22C U23A U115C A129G | 2.51 |
| U20C U62C A140G | 0.1 |
| U20C U45A U109A | 1.17 |
| C19U U26A U62C U104A A141G U143C | 0.05 |
| U20C A43G A64U | 0.9 |
| U20C U29A U132A | 1.6 |
| C19U U39C A77G G105A U112C | 1.69 |
| U20A U23C U81C | 1.53 |
| A22G A43G A57U G88A | 0.06 |

| Variant | self-cleavage |
| --- | --- |
| U20C A42G U62C | 0 |
| G21A U23C G40U U45C A69G U85G | 0 |
| C19U G75A U130A U132A | 1.38 |
| U20A A78U A129G A140G | 2.83 |
| U20A A42G A129G | 1.6 |
| U20C U85C A142G | 0.13 |
| C19U U47C A64C A124G | 0.28 |
| U20C A65G U87C U143C C146U | 0 |
| C19U U45C A57U | 0.17 |
| U20A U52C A57G A77G | 2.45 |
| U20C U26A A43G A92G | 0 |
| C19U C76U C90A U108C | 0.02 |
| U20C U26A A59G | 0.3 |
| U20C U85C U115G | 0 |
| C19U U112C A138G | 0.22 |
| U20A C76U U102C U104A A136C | 2.11 |
| U20C G25A U45G U81A | 2.15 |
| G21A A77U U87C | 0.08 |
| U20C U39A C146U | 1.49 |
| U20C A42U A64U | 0.37 |
| U20C A64C U119C U134C | 0.38 |
| U20A U45A G74A U132C | 0.8 |
| A22G A42G A117C | 1.27 |
| U20C A94G A107G | 0 |

| Variant | self-cleavage |
| --- | --- |
| U20C A64U C66A U102A | 0.05 |
| G21A A77G G80U U85C A138U | 0.09 |
| U20A A138G A141U | 1.51 |
| U20C A94G U100C U119A G122A | 0.66 |
| U20C C61A C99U A129G | 0.05 |
| U20C A69U G122A | 0.1 |
| U20A A43G A138U | 1.42 |
| U20C G21A U104A A136U | 0.57 |
| U20G U104C U112A | 2.24 |
| U20C A57U U87C | 0.06 |
| U20C U47C U85A U130C | 0.25 |
| U20A A69G A92G A124U | 0 |
| U20A U81A G89A U102A | 0.08 |
| U20G U45C A67G A107G | 0 |
| U20G U26C A30G U52A | 1.72 |
| U20C U119A A140U | 1.66 |
| U20C G60A A94G A124G G126A | 0.04 |
| U20A U39A U45G A59G | 0 |
| U20C A117G U132C | 1.53 |
| U20A U52A U108C U109C A129G | 0 |
| U20C C38U U39C C63A A124U U143C | 0.06 |
| A22C U45C A77U | 1.13 |
| U20C U100A A142G | 0.5 |
| C19U U100C A140G | 0.63 |

| Variant | self-cleavage |
| --- | --- |
| C19U U23A A140G | 0.55 |
| G21A A30G U100A A140G | 0.63 |
| U20C A50U U115C | 0.47 |
| G21U G33U U73C | 1.67 |
| U20A G33U A42U | 0.92 |
| C19U C37G A67C A141U | 0.03 |
| G21A A59U A67U | 0.06 |
| U20C A65G A78G | 0 |
| G21A U45C C56U | 0.1 |
| U20C U87C A117U | 0.26 |
| U20C G33A A67G G127U U143C | 0.33 |
| C19U U85A U134A | 0.14 |
| U20C U102C A129U | 1.95 |
| U20A A22G U26A | 0.71 |
| U20A U46C A78G A117U | 0.33 |
| A22G A30U A65G | 0.23 |
| U20C U73C A107G | 1.02 |
| U20C U47A A77G A142C | 1.89 |
| U20A G48U C56U | 0.12 |
| U20A A22G A94G | 0.27 |
| U20C A59G A64G A65G U109A | 0 |
| U20C U119C A124U | 1.33 |
| U20A G32A U62C U112C | 0 |
| U20C A78G C133U | 1.44 |

| Variant | self-cleavage |
| --- | --- |
| G21U A64G A142G | 0.11 |
| U20C C90U A138G | 0 |
| U20C U73A A79U | 2.99 |
| G21A A67C A92U U108C C120G | 0 |
| U20A U47C U115A | 1.76 |
| U20C G106A U115C U134A A141G | 1.88 |
| U20C U46C U52C U134C | 2.55 |
| U20C U73A A129G | 1.99 |
| U20A U62A U143C | 0.09 |
| U20A A65G U73C A136G | 0 |
| U20A A42G A142G | 0.85 |
| U20C U23C U47A A117U | 1.47 |
| C19U U62A U81C U100A U134C | 0.08 |
| U20A G105A A140G | 1.25 |
| U20A U73C C118U A138U | 1.56 |
| U20A A43G U115A | 0.21 |
| U20C U96A G114U A117U A138G A140G A141G | 0.05 |
| U20C A57G G72C A78G A107U | 0.56 |
| U20C A67U G88A | 0.01 |
| U20A A57G C95A | 0.12 |
| U20C U87C U115C U130A | 0.9 |
| U20C A24U A64U A138C | 0 |
| U20A G97A C110A | 0.04 |
| U20C U73A A117U U119A G144A | 2.06 |

| Variant | self-cleavage |
| --- | --- |
| U20G A65U A107G A140U | 0.39 |
| U20C A57G U115A U134A G137U | 1.74 |
| U20C A31G A69G A142G | 0.61 |
| U20C U73C A94U U104C U132C | 0.54 |
| U20C A117C U119C | 0.92 |
| U20G G33U A78G A140G | 0.89 |
| U20C A65G U91C C98A | 0.12 |
| C19U U39G A65G | 0.8 |
| A22G A42U U108C U132C | 0.8 |
| G21U C76A A107G A141G U143A | 1.89 |
| U20C A59G A65C U73A A94G | 0 |
| G21A U81A A117G | 2.07 |
| U20C U23C A43U | 1.97 |
| A22G A31G A64U U96A U115C | 0 |
| G21A U52C G127C | 0.88 |
| G21A U46G C76G U81A A142G | 2.5 |
| U20A A22G G89A U115G | 0.05 |
| U20C G35A A121G | 1.09 |
| U20C U47A G126A | 1.42 |
| G21A U45A U91C | 0.28 |
| C19U U20A A92G | 0.12 |
| U20A A57G U104A | 0.36 |
| C19U U45C U87A U109C A140G | 0 |
| U20A U96A A136G A138U C146U | 0.05 |

| Variant | self-cleavage |
| --- | --- |
| U20G A57U A92G U115A U134A A142G | 0.24 |
| U20C G40C A57U A79G A142G U143A | 0.2 |
| U20A A22C U62C A65G G127U | 0.26 |
| U20A A78G U132C | 1.32 |
| U20C U62C U81A A124G | 0 |
| U20A G25A U62C G127A | 0.07 |
| U20A G27A U104C A124G | 1.11 |
| U20C A64G U96A U134C | 0.15 |
| U20A A50G A67G U132C | 0.81 |
| U20A C37G G72U A78G U87A U91A | 0.06 |
| U20C A59U A64G U91C | 0.6 |
| U20C U85A A92G U119C | 0 |
| U20C U45A A65U A77U | 0.2 |
| U20A U104C A138G | 2.89 |
| U20A U45A U143C | 0.3 |
| U20A U96G U115C | 0.25 |
| A22G A42G A57G | 1.57 |
| U20G U102C A121G A136G A138U | 1.45 |
| U20C U45C U47G A65U G74A A121G A124G | 0.11 |
| U20C A78G U87A | 0.07 |
| U20A A64G C110U U119A | 0.36 |
| U20A G88A U109C A129G A136G | 0.1 |
| U20G U39C U81C C103U U119C | 1.02 |

From the RNAGym collection of RNA variant scans (doi:10.7554/elife.90254)
